Measurements reported in patent US10280198B2, “Therapeutic agents for reducing parathyroid hormone levels” (KAI PHARMACEUTICALS, INC., priority 2009, dated 2019).

tested on: plasma PTH; assay: In vivo PTH lowering after IV bolus in isoflurane-anesthetized normal Sprague Dawley rats; parameters: species or system rat; details: 0.5 mg/kg single IV administration
Method: The peptides were administered intravenously at a dose of 0.5 mg/kg into isoflurane-anesthetized normal Sprague Dawley rats. A control group of rats was treated with saline. Blood was drawn prior to dosing and every hour for 4 hours. Rats were maintained under isoflurane anesthesia for the entire study. […] Percent PTH reduction was calculated according to the following formula: AUCcmpd treated/AUCsaline control*100.
An intravenous (IV) bolus of saline was used as a control. Plasma (K2EDTA) PTH levels were assessed prior to dosing and 1, 2, 3 and 4 hours after dosing. Rats were maintained under isoflurane anesthesia for the entire study. […] In FIG. 2B, PTH is shown as percent of the baseline pre-dose value.
A series of compounds having an L-amino acid residue substituted for a D-amino acid residue were prepared. The compounds were administered as an IV bolus to normal Sprague Dawley rats at a dose of 0.5 mg/kg. An intravenous (IV) bolus of saline was used as a control. […] Rats were maintained under isoflurane anesthesia for the entire study.

Molecule | PTH-lowering activity in normal rats
CC(=O)N[C@H](CS)C(=O)N[C@H](CCCNC(=N)N)C(=O)N[C@H](CCCNC(=N)N)C(=O)N[C@H](C)C(=O)N[C@H](CCCNC(=N)N)C(=O)N[C@H](CCCNC(=N)N)C(=O)N[C@H](C)C(N)=O [SEQ ID NO: 14, Ac-crrarra-NH2] (Ac-[dC][dR][dR][dA][dR][dR][dA]-NH2) | inactive

same assay, conditions: Table 2; normal rats, AUC 1-4 h

Molecule | 0.5 mg/kg IV bolus % PTH AUC of saline control
CC(=O)N[C@H](CS)C(=O)N[C@H](CCCNC(=N)N)C(=O)N[C@H](CCCNC(=N)N)C(=O)N[C@H](C)C(=O)N[C@H](CCCNC(=N)N)C(=O)N[C@H](CCCNC(=N)N)C(=O)N[C@H](C)C(N)=O [SEQ ID NO: 14, Ac-crrarra-NH2] (Ac-[dC][dR][dR][dA][dR][dR][dA]-NH2) | 130%
CC(=O)N[C@H](CS)C(=O)N[C@H](C)C(=O)N[C@H](CCCNC(=N)N)C(=O)N[C@H](CCCNC(=N)N)C(=O)N[C@H](C)C(=O)N[C@H](CCCNC(=N)N)C(=O)N[C@H](CCCNC(=N)N)C(N)=O [SEQ ID NO: 16, Ac-carrarr-NH2] (Ac-[dC][dA][dR][dR][dA][dR][dR]-NH2) | 105%

same assay, conditions: Table 3; normal rats, AUC 1-4 h

Molecule | 0.5 mg/kg IV bolus % PTH AUC of saline control
Ac-dPen-rrrrrr-NH2 [SEQ ID NO: 33] | 9%
Mpa-rrrrrr-NH2 [SEQ ID NO: 31] | 2%

same assay, conditions: Table 4; normal rats, AUC 1-4 h

Molecule | 0.5 mg/kg IV bolus % PTH AUC of saline control
CC(=O)N[C@@H](CSSC[C@H](N)C(=O)O)C(=O)N[C@H](C)C(=O)N[C@H](CCCNC(=N)N)C(=O)N[C@H](CCCNC(=N)N)C(=O)N[C@H](CCCNC(=N)N)C(=O)N[C@H](C)C(=O)N[C@H](CCCNC(=N)N)C(N)=O [SEQ ID NO: 34, Ac-C(C)arrrar-NH2] | 17%

same assay, conditions: Table 7; normal rats, AUC 1-4 h

Molecule | 0.5 mg/kg IV bolus % PTH AUC of saline control
Ac-c-Aib-rrr-Aib-r-NH2 [SEQ ID NO: 120] | 94%
Ac-carrr-Sar-r-NH2 [SEQ ID NO: 117] | 111%
Ac-crrar-Sar-r-NH2 [SEQ ID NO: 126] | 62%
Ac-c-Sar-rrr-Sar-r-NH2 [SEQ ID NO: 125] | 65%
Ac-carrr-Aib-r-NH2 [SEQ ID NO: 124] | 68%
Ac-crrar-Nma-r-NH2 [SEQ ID NO: 119] | 101%
Ac-crr-Sar-rar-NH2 [SEQ ID NO: 116] | 141%
Ac-crr-dNva-rar-NH2 [SEQ ID NO: 137] | 3%
Ac-crr-Nma-rar-NH2 [SEQ ID NO: 121] | 86%
Ac-carrr-Nle-r-NH2 [SEQ ID NO: 129] | 64%
Ac-c-Sar-rrrar-NH2 [SEQ ID NO: 128] | 50%
Ac-c-Nma-rrr-Nma-r-NH2 [SEQ ID NO: 118] | 105%
Ac-carrr-Nma-r-NH2 [SEQ ID NO: 122] | 74%
Ac-crr-dNle-rar-NH2 [SEQ ID NO: 138] | 3%
Ac-c-Aib-rrrar-NH2 [SEQ ID NO: 123] | 70%
Ac-c-Nma-rrrar-NH2 [SEQ ID NO: 127] | 56%

same assay, conditions: Table 8; compound dosed at 10 mg/kg (~equivalent molarity to 0.5 mg/kg non-PEGylated peptide), normal rats

Molecule | % PTH AUC of saline control
Ac-c(C-PEG20)rrrrrr-NH2 [SEQ ID NO: 143] | 25%

same assay, conditions: Table 8; compound dosed at 20 mg/kg (~equivalent molarity to 0.5 mg/kg non-PEGylated peptide), normal rats

Molecule | % PTH AUC of saline control
Ac-c(C-PEG40)rrrrrr-NH2 [SEQ ID NO: 144] | 15%

same assay, conditions: Table 8; normal rats, AUC 1-4 h

Molecule | 0.5 mg/kg IV bolus % PTH AUC of saline control
Ac-c(dHcy)arrrar-NH2 [SEQ ID NO: 139] | 32%

tested on: rat peritoneal mast cells; assay: In vitro histamine induction in rat peritoneal mast cells; type: cell-based; details: not given
Method: To further evaluate the relationship between compound structure and histamine release, a series of compounds was prepared and assessed for their ability to trigger induction of histamine in an in vitro assay using rat peritoneal mast cells. In this assay, compounds are incubated at 10 μM for 15 minutes at 37° C. with cells isolated from peritoneal lavage of SD rats. Following incubation, cell medium is collected and histamine is determined.
Accordingly, and as can be appreciated in view of the PTH data and the histamine data described hereinabove, in one embodiment, a compound that has activity to decrease PTH level in a subject in the absence of a histamine response is contemplated. In certain embodiments, absence of a histamine response intends a dose of the compound that produces a less than 10-fold, more preferably 8-fold, still more preferably 5-fold, and even still more preferably 3-fold, increase in histamine, measured in vitro in an assay as described herein, where the fold change is determined based on histamine levels before incubation with the compound and after 15 minutes incubation with compound. In a specific embodiment, the histamine response is determined in an in vitro assay using rat peritoneal mast cells isolated from peritoneal lavage of normal Sprague Dawley rats, and where the fold change is determined based on histamine levels before incubation with the compound and after 15 minutes incubation with compound. In the studies conducted herein, the in vitro evaluation of histamine release was performed using isolated rat peritoneal mast cells isolated by peritoneal lavage using cold HBSS+25 mM HEPES pH 7.4 containing heparin (5 u/mL). Cells were washed twice in stimulation buffer (HBSS+25 mM HEPES pH 7.4) and incubated with 10 μM of compound in stimulation buffer (HBSS+25 mM HEPES pH 7.4) for 15 minutes in a 96-well plate ([…]) at 37° C. Cell supernatant was analyzed for histamine using histamine EIA kit (Cayman #589651).
For in vitro evaluation of histamine release, isolated rat peritoneal mast cells were isolated by performing peritoneal lavage using cold HBSS+25 mM HEPES pH 7.4 containing heparin (5 u/mL). Cells were washed twice in stimulation buffer (HBSS+25 mM HEPES pH 7.4) and incubated with 10 μM of compound in stimulation buffer (HBSS+25 mM HEPES pH 7.4) for 15 minutes in a 96-well plate (10^6/well) at 37° C. Cell supernatant was analyzed for histamine using histamine EIA kit (Cayman #589651).

Histamine in vitro Fold change of non-treated at 10 uM | Molecule
1.6 fold | CC(=O)N[C@H](CS)C(=O)N[C@H](CCCNC(=N)N)C(=O)N[C@H](CCCNC(=N)N)C(=O)N[C@H](C)C(=O)N[C@H](CCCNC(=N)N)C(=O)N[C@H](CCCNC(=N)N)C(=O)N[C@H](C)C(N)=O [SEQ ID NO: 14, Ac-crrarra-NH2] (Ac-[dC][dR][dR][dA][dR][dR][dA]-NH2)
1.4 fold | CC(=O)N[C@H](CS)C(=O)N[C@H](C)C(=O)N[C@H](CCCNC(=N)N)C(=O)N[C@H](CCCNC(=N)N)C(=O)N[C@H](C)C(=O)N[C@H](CCCNC(=N)N)C(=O)N[C@H](CCCNC(=N)N)C(N)=O [SEQ ID NO: 16, Ac-carrarr-NH2] (Ac-[dC][dA][dR][dR][dA][dR][dR]-NH2)
4.1 fold | CC[C@@H](C)[C@@H](NC(=O)[C@@H](CCCNC(=N)N)NC(=O)[C@@H](C)NC(=O)[C@@H](CCCNC(=N)N)NC(=O)[C@@H](CCCNC(=N)N)NC(=O)[C@@H](CS)NC(C)=O)C(=O)N[C@H](CCCNC(=N)N)C(N)=O [SEQ ID NO: 152, Ac-crrarir-NH2] (Ac-[dC][dR][dR][dA][dR][dI][dR]-NH2)
1.0 fold | CC(=O)N[C@H](CS)C(=O)N[C@H](C)C(=O)N[C@H](CCCNC(=N)N)C(=O)N[C@H](CCCNC(=N)N)C(=O)N[C@H](CCCCN)C(=O)N[C@H](C)C(=O)N[C@H](CCCNC(=N)N)C(N)=O [SEQ ID NO: 86, Ac-carrkar-NH2] (Ac-[dC][dA][dR][dR][dK][dA][dR]-NH2)
2.5 fold | CC(=O)N[C@H](CS)C(=O)N[C@H](CCCNC(=N)N)C(=O)N[C@H](CCCNC(=N)N)C(=O)N[C@H](C)C(=O)N[C@H](CCCNC(=N)N)C(=O)N[C@H](Cc1c[nH]cn1)C(=O)N[C@H](CCCNC(=N)N)C(N)=O [SEQ ID NO: 151, Ac-crrarhr-NH2] (Ac-[dC][dR][dR][dA][dR][dH][dR]-NH2)
1.9 fold | CC(=O)N[C@H](CS)C(=O)N[C@H](CCCNC(=N)N)C(=O)N[C@H](CCCNC(=N)N)C(=O)N[C@H](CCCNC(=N)N)C(=O)N[C@H](CCCNC(=N)N)C(=O)N[C@H](C)C(=O)N[C@H](C)C(N)=O [SEQ ID NO: 146, Ac-crrrraa-NH2] (Ac-[dC][dR][dR][dR][dR][dA][dA]-NH2)
1.6 fold | CC(=O)N[C@H](CS)C(=O)N[C@H](CCCNC(=N)N)C(=O)N[C@H](CCCNC(=N)N)C(=O)N[C@H](C)C(=O)N[C@H](CCCNC(=N)N)C(=O)NCC(=O)N[C@H](CCCNC(=N)N)C(N)=O [SEQ ID NO: 149, Ac-crrarGr-NH2] (Ac-[dC][dR][dR][dA][dR]G[dR]-NH2)
0.9 fold | CC(=O)N[C@H](CS)C(=O)N[C@H](C)C(=O)N[C@H](CCCNC(=N)N)C(=O)N[C@H](CCCNC(=N)N)C(=O)N[C@H](CCCNC(=N)N)C(=O)N[C@H](C)C(=O)N[C@H](CCCCN)C(N)=O [SEQ ID NO: 70, Ac-carrrak-NH2] (Ac-[dC][dA][dR][dR][dR][dA][dK]-NH2)
2.7 fold | CC(=O)N[C@H](CS)C(=O)N[C@H](C)C(=O)N[C@H](CCCCNC(=N)N)C(=O)N[C@H](CCCCNC(=N)N)C(=O)N[C@H](CCCCNC(=N)N)C(=O)N[C@H](C)C(=O)N[C@H](CCCNC(=N)N)C(N)=O [SEQ ID NO: 154, Ac-ca(dHar)(dHar)(dHar)ar-NH2]
0.6 fold | CC(=O)N[C@H](CS)C(=O)N[C@H](C)C(=O)N[C@H](CCCNC(=N)N)C(=O)N[C@H](C)C(=O)N[C@H](CCCNC(=N)N)C(=O)N[C@H](C)C(=O)N[C@H](CCCNC(=N)N)C(N)=O [SEQ ID NO: 148, Ac-cararar-NH2] (Ac-[dC][dA][dR][dA][dR][dA][dR]-NH2)
1.1 fold | CC(=O)N[C@H](CS)C(=O)N[C@H](C)C(=O)N[C@H](CCCCN)C(=O)N[C@H](CCCCN)C(=O)N[C@H](CCCCN)C(=O)N[C@H](C)C(=O)N[C@H](CCCCN)C(N)=O [SEQ ID NO: 147, Ac-cakkkak-NH2] (Ac-[dC][dA][dK][dK][dK][dA][dK]-NH2)
1.6 fold | CC(=O)N[C@H](CS)C(=O)N[C@H](CCCNC(=N)N)C(=O)N[C@H](CCCNC(=N)N)C(=O)N[C@H](C)C(=O)N[C@H](CCCNC(=N)N)C(=O)N[C@H](CCC(N)=O)C(=O)N[C@H](CCCNC(=N)N)C(N)=O [SEQ ID NO: 150, Ac-crrarqr-NH2] (Ac-[dC][dR][dR][dA][dR][dQ][dR]-NH2)

Square brackets hold non-standard residues; d marks the D form. Peptide text beside a SMILES is read from it.
